Experimental findings from ChEMBL document CHEMBL1201862, “PubChem BioAssay data set” (2004) are described below.

SMILES strings stand for the structures.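 Results reflect a 48-hour exposure of cells in 96-well plates to compound at five concentrations. Here, GI50 denotes the concentration required for 50% inhibition of growth.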 The source made the active and inactive calls. No stated cut-off is given here; in the data, active = GI50 up to about 1.1 µM and inactive = higher. Bounds are passed on as bounds.

This assay deals with NCI-H322M. Put plainly: NCI tumour cell line growth inhibition, 48 h.
In the case of `Cc1cc(S(=O)(=O)Nc2nnc3cnc4ccccc4n23)c(S)cc1Cl`, the GI50 was inactive: 67.5 µM.

Take `O=C1Nc2ccccc2/C1=N/NC(=S)Nc1ccccc1Cl`: the GI50 was inactive: 5.35 µM. Then `COc1cc(S(=O)(=O)Nc2ccc(-c3csc(N4C(=O)C(Cl)C4c4ccccc4)n3)cc2)ccc1Cl` (centres undefined), with inactive: > 100 µM; and `COc1ccccc1C(=O)c1c(NCc2ccccc2)c(=O)c1=O`, with inactive: > 100 µM.

As to `CCOC(=O)c1sc2nc(SC)nc3c2c1N=CN3c1ccccc1Cl`, the GI50 is inactive: > 100 µM. Take `COc1c2cc(C(C)(C)C)cc1Cc1cccc(c1O)Cc1cc(C(C)(C)C)cc(c1OC)Cc1cccc(c1O)Cc1cc(C(C)(C)C)cc(c1OC)Cc1cccc(c1O)C2`: the GI50 was inactive: > 100 µM. Then `COC(=O)C(C)(/N=C/c1ccccc1)c1ccccc1` (centres undefined), with inactive: > 100 µM; and `O=C(Nn1c(-c2ccccc2)nc2ccccc2c1=O)c1ccc(CS)cc1`, with inactive: > 100 µM; and `C1CSCC2(COC2)CS1`, with inactive: > 100 µM. Then `CC(=O)N/C(=C\c1ccc(Cc2nc3c([nH]2)C(=O)c2ccccc2C3=O)cc1)c1nc2c([nH]1)C(=O)c1ccccc1C2=O`, with inactive: > 100 µM. Then `COc1ccc(N2C(=O)C3c4[nH]c5c(C)cccc5c4C4CCC(C(C)C)CC4C3C2=O)cc1` (centres undefined), with inactive: 12.9 µM; and `Cc1cc(=O)c2c([nH]1)NS(=O)(=O)NC2=O`, with inactive: > 100 µM. For the compound `O/N=C1\CC2(N3CCOCC3)CCC1(Cc1ccccc1)CC2`, the GI50 was inactive: > 100 µM. As for `S=CN1CCCCC1`, the GI50 is inactive: > 100 µM. With `Cc1c(C(=O)CC(=O)C(=O)Nc2c(C(C)C)cccc2C(C)C)[n+]([O-])c2ccccc2[n+]1[O-]`, the GI50 was inactive: 3.98 µM. For `CC1=C(C)SC(=C2Sc3c(n(C)c(=O)[nH]c3=O)S2)S1`, the GI50 was inactive: > 100 µM. Then `O=C(CC(=O)c1ccccc1)CC(O)(c1ccccc1)c1ccccc1`, with inactive: 7.14 µM. As for `CS/C(=N\c1ccccc1)N(c1ccccc1)c1nc(=[N+](C)C)ss1.[O-][Cl+3]([O-])([O-])[O-]`, the GI50 is inactive: 14.4 µM. On to `CC1=C[C@@H]2[C@@H](CC(CO)=C[C@H]3[C@@H]4C(C)(C)[C@]4(OCC(C)C)[C@H](OCC(C)C)[C@@H](C)[C@]23O)C1=O`, for which the GI50 was inactive: 2.92 µM. Then `CC(NC(=O)Cc1ccccc1)NC(=O)C(C)C(=O)NCc1ccccc1` (centres undefined), with inactive: > 100 µM. Turning to `COc1ccc(/C=C2/SC(c3ccc(Cl)cc3)N(NC(=O)CCCCCCCCC(=O)NN3C(=O)/C(=C\c4ccc(OC)c(OC)c4)SC3c3ccc(Cl)cc3)C2=O)cc1OC` (centres undefined), the GI50 is inactive: 55.3 µM.

For the compound `COc1cc(/C=N/c2ccccn2)cc(OC)c1OC`, the GI50 is inactive: > 100 µM.

As for `CC(=O)Nc1ccc2nc(N)n[n+]([O-])c2c1`, the GI50 was inactive: > 100 µM.

Turning to `N#Cc1c(N)c2c(c(-c3ccccc3)c1-c1ccccc1)C(=O)N(NC(=S)Nc1ccccc1)C2=O`, the GI50 is inactive: > 100 µM. Then `CCCCNc1nc2ccccc2c2c1ncn2CC(C)C`, with inactive: > 100 µM; and `Cc1cc2nc3c(C)c4ccccc4c(C)n3c2cc1C`, with inactive: 2.58 µM; and `C=C1C(O)C2(O)OCC34C(CC5C(C)=CC(=O)C(O)C5(C)C23)OC(=O)C(OC(=O)C/C=C/CCCCCCCC)C14` (centres undefined), with active: 0.0289 µM.

For the compound `Cc1ccc(C)n1-c1ccccc1C1C=CN(C(=O)OC(C)(C)C)C=C1`, the GI50 was inactive: 30.3 µM. Regarding `CC(C)(Oc1ccc2c(=O)cc(-c3ccccc3)oc2c1)C(=O)N1CCN(c2ccccc2)CC1`, the GI50 was inactive: 8.97 µM.

As to `Cc1ccc(/N=N/c2c(C)c(C#N)c(=S)n(C3OC(CO)C(O)C(O)C3O)c2C)cc1` (centres undefined), the GI50 is inactive: 24.1 µM.

Regarding `O=C(CC1Sc2ccccc2NC1=O)Nc1ccc(Cl)cc1` (centres undefined), the GI50 is inactive: 46.3 µM.

On to `CSc1ncc2c(n1)-c1ccccc1OC2NC1CC1` (centres undefined), for which the GI50 was inactive: > 100 µM. For `COc1ccccc1NC(=O)C1=C(C)NC(C)=C(C(=O)Nc2ccccc2OC)C1c1ccccc1OC`, the GI50 is inactive: > 100 µM. Then `Cc1ccc2nc(SCC(=O)N/N=C3\C(=O)Nc4ccccc43)n(-c3ccccc3)c(=O)c2c1`, with inactive: 12.9 µM. With `CCCCc1c2c(nc3c1CCCC3O)/C(=C/c1ccccc1)CCC2` (centres undefined), the GI50 is inactive: 43.9 µM. With `Cc1[nH]c2ccccc2c1-c1n[nH]c(=O)c2ccccc12`, the GI50 was inactive: 26.7 µM. Then `Nc1ccc2c(SCCSc3c4ccccc4nc4cc(N)ccc34)c3ccccc3nc2c1`, with inactive: 24.7 µM; and `COc1cc([C@@H]2c3cc4c(cc3[C@@H](Nc3ccc(Cl)cc3C(=O)c3ccccc3Cl)[C@H]3COC(=O)[C@H]23)OCO4)cc(OC)c1OC`, with active: 0.492 µM. Then `CSc1ncc2c(n1)sc1c(=O)n(-c3ccccc3)cnc12`, with inactive: > 100 µM; and `CC1(C)CC[C@]2(C)[C@@H](O)C[C@]3(C)C(=CC[C@@H]4[C@@]5(C)CC[C@H](O)C(C)(C)[C@@H]5CC[C@]43C)[C@@H]2C1`, with inactive: 44.3 µM; and `C=CCN(C)CN(C)c1nc(N(C)C)nc(N(C)C)n1`, with inactive: > 100 µM. Then `O=C1CCC(=O)C12CCc1cccc(O)c12`, with inactive: > 10 µM; and `COc1ccc(CNc2nc3cc(C(F)(F)F)ccc3nc2C(=O)O)cc1OC`, with inactive: 28.1 µM. For the compound `CC(=O)OCCOCn1cc(C=O)c2ccccc21`, the GI50 was inactive: > 100 µM. As for `N#C/C(=C\NC(=S)Nc1ccc(S(=O)(=O)Nc2ccccn2)cc1)C(N)=O`, the GI50 was inactive: > 100 µM.

As for `COc1cc(Nc2c(C#N)[n+]([O-])c3ccccc3[n+]2[O-])cc(OC)c1OC`, the GI50 is inactive: 32.9 µM.

For `Cc1cc(C#N)c(Nc2ccc(F)cc2[N+](=O)[O-])s1`, the GI50 was inactive: > 100 µM. Then `CN(C)C(=S)/N=c1\ss/c(=N\C(=S)N(C)C)n1C1CCCCC1`, with inactive: > 100 µM. Then `CC(C)[Si](OC1=C(C(=O)N(C)c2cccc(Cl)c2)CCCC1)(C(C)C)C(C)C`, with inactive: 15 µM; and `CCOP(=O)(C/C(O)=C1\C(=O)C(CCCCNC(=O)OC(C)(C)C)N(Cc2ccccc2)C1=O)OCC` (centres undefined), with inactive: 34.8 µM.

Turning to `Cc1cccc(C)c1NC(=O)CCC(=O)NNC(=O)c1cc(O)c2ccccc2c1`, the GI50 was inactive: 44.3 µM. For `COc1ccc(-c2nc3ccc([N+](=O)[O-])cc3c(=O)[nH]2)cc1`, the GI50 is inactive: > 100 µM. Then `COc1ccc(N2C(=O)C3ON(Cc4ccc(CC(N)=O)cc4)C(c4c5ccccc5c(C)c5ccccc45)C3C2=O)cc1` (centres undefined), with inactive: 43.1 µM; and `CSc1nc(C)c(CCOC(C)=O)c(Cl)n1`, with inactive: > 100 µM.

For the compound `CCc1nnc2sc(-c3ccc(-c4ccc(Cl)cc4Cl)o3)nn12`, the GI50 is inactive: 91.6 µM. Then `c1ccc2c(c1)CCCN1CCc3ccccc3C21` (centres undefined), with inactive: 70.8 µM.

For `O=C1NC(=O)C2C(=O)NC(=O)C1C2(c1ccccc1)c1ccc(Cl)cc1` (centres undefined), the GI50 was inactive: > 100 µM. As to `Cc1cc(N(CCC#N)CCC#N)ccc1/C=N\c1ccc(C(=O)NN2C(=O)/C(=C/c3ccc(N(CCC#N)CCC#N)cc3)N=C2c2cc([N+](=O)[O-])ccc2Cl)cc1`, the GI50 was inactive: > 100 µM. As for `C[Si](C)(C)CNC(=O)OCc1ccccc1`, the GI50 was inactive: > 100 µM. With `N[C@@H]1c2c(Br)sc(Br)c2[C@H](O)[C@@H]1O`, the GI50 is inactive: > 100 µM. Then `O=C(O)c1ccc(NC(=O)C2C(=O)C(=O)N(c3ccc(C(=O)O)cc3)C2=O)cc1` (centres undefined), with inactive: > 100 µM; and `COC(=O)C1=C(C(=O)OC)C2(C)C=CC1O2` (centres undefined), with inactive: > 100 µM; and `Cc1cc(C)c2nc3c(c(C(O)C4CCCCN4)c2c1)CC/C3=C\c1ccc(Cl)cc1` (centres undefined), with inactive: 47.9 µM. Then `O=c1n(-c2ccccc2)c(=O)n2n1C1C=CC2CCCCCC1`, with inactive: > 100 µM; and `CC(C)c1cc(C(C)C)c(Cl)c(Cl)c1O.CC(C)c1cc(Cl)c(O)c(C(C)C)c1Cl`, with inactive: 37.8 µM.

`O=C(CCC(=O)Nc1ccc(Cl)c(Cl)c1)CC(=O)c1ccc2ccccc2c1`: the GI50 is inactive: > 100 µM. Then `CNC(=O)OC(COC)CN1CCN(c2ccccc2C)CC1` (centres undefined), with inactive: > 10 µM; and `CCCCCCCCCCNC(=O)CCC(NC(=O)c1ccc(N(C)Cc2cnc3nc(N)nc(N)c3n2)cc1)C(=O)NCCCCCCCCCC` (centres undefined), with inactive: 12 µM. With `CC[C@@]1(O)C(=O)OCc2c1cc1n(c2=O)Cc2c-1nc1ccccc1c2/C=N\NC(=O)C(N)CCSC` (some centres undefined), the GI50 is active: 0.38 µM.

On to `COc1cc(/C=C2\C(=O)N(C(=O)Cc3ccccc3)N=C2C)cc(OC)c1OC`, for which the GI50 was inactive: > 100 µM. For `Cc1ccc(NCCO)cc1`, the GI50 is inactive: > 100 µM. Then `C=C1C(=O)OC2C=C(CCC(C)=O)C(C)C(OC(C)=O)CC12` (centres undefined), with inactive: 17.7 µM; and `Cc1nc(C(N)=S)sc1C(=O)C/C(=N/N)C(=O)Nc1ccc(Cl)cc1`, with inactive: > 100 µM; and `CN(C)c1ccc(C2ON=C(c3ccccc3)N2C23CC4CC(CC(C4)C2)C3)cc1` (centres undefined), with active: 0.745 µM.

With `CCCNC(C#N)c1ccc(OCCCCCCCCCCOc2ccc(C(C#N)NCCC)cc2)cc1` (centres undefined), the GI50 is inactive: 84.9 µM. Take `O=C(Oc1ccccn1)c1cc2cc(CCl)ccc2oc1=O`: the GI50 is inactive: 35.6 µM. With `CSCCCNC(=O)c1csc(-c2csc(CCNC(=O)CNC(=O)CNC(=O)CNC(=O)OC(C)(C)C)n2)n1`, the GI50 was inactive: > 100 µM. Then `CSc1ccc2c(cc1=O)[C@@H](NC(C)=O)CCc1cc(O)c(O)c(O)c1-2`, with inactive: 51.2 µM; and `O=C(Cc1ccccc1)Nc1nc2ccc(Cl)cc2c2nc(-c3ccco3)nn12`, with inactive: > 100 µM.
